Drawing on the RNAGym collection of RNA variant scans (doi:10.7554/elife.90254), this text covers self-cleavage for 167 variants.

The source gives no read counts; variants with many changes may rest on few reads.

B1: LINE1-mini (parent)
chain: GGCAGAGCUCAACACAGCGUGGCAAAGUGGCUGUGGCUAGACUGCC

The data set covers variants of B1. Kind of data set: self-cleavage, relative activity (ratio to wild type); higher = more cleavage; in vitro, sequencing; the parent is a self-cleaving ribozyme.
On to U9G A12U C31G, for which the self-cleavage came out at 0.01. With U9G A12U C13U C15G C31U, the self-cleavage worked out at 0.02. For the variant U9C G22A C23U, the self-cleavage was determined as 0.01. Take U9G A14U A25U G33U G40U C42A: the self-cleavage amounted to 0.01.

For the variant U9G A11C G17C C42A, the self-cleavage is 0.02. With U9C U34A G36C A39G, the self-cleavage was 0.04. U9C A14U G29U G36A: the self-cleavage amounted to 0.03.

As to U9C C13U G22U U34C C45A, the self-cleavage is 0.02. On to U9C G21C G22U G36U C42U, for which the self-cleavage came out at 0.03.

In the case of U9C C15U G22A, the self-cleavage was found to be 0.01. With U9C A14G C45A the figure was 0.05; with U9G A14U C15A C18U G44A, 0.03. With U9G C10U A14G C45A, the self-cleavage stood at 0.03.

Consider U9G A26G G35A, for which the self-cleavage stood at 0.04. With U9G A16U C23A G27U A39G the figure was 0.02; with U9C C31A U34C, 0.01. Consider U9C G17U A25U, for which the self-cleavage was 0.03. With U9G A16G G44U the figure was 0.02; with U9G A12U A24C A41G, 0.03. On to U9C A12U A24U C37U, for which the self-cleavage was 0. The same measure for U9C C10A A11C G19U: 0.01; for U9C C13A A24G: 0.02; for U9C C13G U34C: 0.02. U9C C15U G22C C23G A26G C46A: the self-cleavage worked out at 0.01. As for U9C U28A C31U G36C, the self-cleavage was 0.02.

For the variant U9C A11U G29U, the self-cleavage amounted to 0.01.

For the variant U9C G40U C46A, the self-cleavage amounted to 0. For the variant U9G C10A A16U, the self-cleavage stood at 0.03.

Consider U9G A12G A26G A41G, for which the self-cleavage came out at 0.01. With U9G A26G C46A the figure was 0.05. U9C C23A C37G: the self-cleavage was determined as 0. For U9G A11C U20G U28G G33C G40A, the self-cleavage worked out at 0.01.

On to U9G A16G G29U G33U, for which the self-cleavage worked out at 0.03. Take U9C C18U U28C G36C: the self-cleavage was 0. With U9G A16C G17C A24C the figure was 0.09. For the variant U9C U32G U38A, the self-cleavage is 0.04.

In the case of U9G A12G G19A U32C, the self-cleavage amounted to 0.03. Regarding U9C G17U G40U, the self-cleavage is 0.04.

Turning to U9C C31A G40U A41C, the self-cleavage came to 0.01. For the variant U9C G22U U34A, the self-cleavage came out at 0.03. For the variant U9C C13U G22U U38G, the self-cleavage came to 0.05.

On to U9C A16U C18U G29C, for which the self-cleavage is 0.03. With U9C A26C G35U, the self-cleavage was 0.05. Take U9G A16G C23U: the self-cleavage was 0.12. As to U9C G35U U38C, the self-cleavage came to 0.05. In the case of U9G A12C G35A, the self-cleavage stood at 0.04. As to U9C A12U U43C, the self-cleavage was determined as 0.04.

For the variant U9G A12U U43C, the self-cleavage turned out to be 0. With U9G C10A G22U A25C G29A the figure was 0.02; with U9C G35A U38A, 0.02; with U9C A11U A25U, 0.01. Regarding U9C C10U A16U C31G G40U, the self-cleavage is 0.

For U9C G21U A25G C46A, the self-cleavage was determined as 0. For U9C G27C G35C C37G, the self-cleavage was found to be 0.01.

Take U9C C10A C15A C18U: the self-cleavage was 0.03. As to U9C G21U C42U, the self-cleavage stood at 0.04. Turning to U9C A14C U20C, the self-cleavage came out at 0.02. As for U9C G21U A25C U32A, the self-cleavage was determined as 0.01. On to U9C C15A C18A C23G U28A, for which the self-cleavage was determined as 0.03. With U9C G21U G29C the figure was 0.03; with U9C C18G U38G, 0. With U9G C10A C18G U20G C31G, the self-cleavage turned out to be 0. U9C G17U C23G: the self-cleavage was determined as 0.07.

In the case of U9C A16U A25U C46G, the self-cleavage is 0.01.

For the variant U9C C10A A16C G19U A24G G33A C37U C42A, the self-cleavage worked out at 0. As for U9G A11U C37G C42A, the self-cleavage stood at 0. On to U9G A16C G21U G40C U43C, for which the self-cleavage stood at 0.02. As for U9C C23U G33A C42A C45A, the self-cleavage was 0.01.

In the case of U9G C13A G21A U32C, the self-cleavage came out at 0.1.

Take U9C C31A U43C: the self-cleavage was determined as 0.03.

For U9G A16G G19A, the self-cleavage came to 0.09.

For U9C G29A C45G, the self-cleavage worked out at 0.04.

As for U9C C31U U32C, the self-cleavage is 0. On to U9C C31U C42G, for which the self-cleavage is 0.01. On to U9C G19C G22A G29C C37G G40U C45U, for which the self-cleavage came out at 0.

Consider U9G A16C C31U C37A, for which the self-cleavage was 0.03. With U9C A24C G29U the figure was 0.14; with U9G A11U C42U G44A, 0.05.

In the case of U9C A12C G33U U34G, the self-cleavage is 0.01. In the case of U9G A12G G30U C31A U38G, the self-cleavage amounted to 0.02. The same measure for U9C A25U G27A U34C G35A G44C: 0.

For the variant U9C C13A C37U, the self-cleavage stood at 0.02. With U9C A11G G27A the figure was 0.08; with U9G A24U U34C, 0.04; with U9C G27A G33U G40U, 0.02. With U9C G33U U43A C46U, the self-cleavage was 0.02.

With U9G A12C A24C U34C G36U U38G, the self-cleavage worked out at 0.01.

For the variant U9G A12U G44A, the self-cleavage turned out to be 0.07.

On to U9C C18A A25C, for which the self-cleavage was 0.01. Consider U9C A12U A25G G35C, for which the self-cleavage was found to be 0.01. For U9C A11U G19U, the self-cleavage turned out to be 0.03.

As to U9G C13A C15A G30C, the self-cleavage was determined as 0.03. For the variant U9C G21C G27A C45U, the self-cleavage was 0.03. As for U9C C10A G30C G44U C45G, the self-cleavage worked out at 0.03. On to U9C G30C U32G, for which the self-cleavage amounted to 0.01.

For the variant U9C G21U C31G, the self-cleavage worked out at 0. Consider U9G A14C C31A G33A A41C C45U, for which the self-cleavage was determined as 0.03. In the case of U9G A12U C45U, the self-cleavage amounted to 0.08. U9C G22U U34G A39C: the self-cleavage stood at 0.01. Regarding U9G C13A G27U U43G, the self-cleavage worked out at 0.03. Consider U9G C10A C15U G21U C45G, for which the self-cleavage stood at 0.01. On to U9G C10U C18U, for which the self-cleavage was 1.1. Regarding U9C A24G C31U G40C A41U, the self-cleavage worked out at 0.01. For U9C G19U G21U G40U C42A, the self-cleavage was 0.17. For U9C A12G C13A U20C G35C, the self-cleavage was determined as 0.01. Turning to U9C G17U G29A C37U, the self-cleavage was 0.02. With U9C A12G C13G the figure was 0.06; with U9G A12G A14U, 0. U9C G30A U34G A41U: the self-cleavage turned out to be 0.01. With U9G C13U A16C G36U A39U, the self-cleavage was 0.05. For U9G A14U C15A U20G C37G, the self-cleavage came to 0.11. Regarding U9G A11U G17U G29A, the self-cleavage turned out to be 0.02. On to U9G A12C G21C G22C A25U, for which the self-cleavage turned out to be 0.03. The same measure for U9G A16U G27U: 0.07; for U9G C10A U20G G30A C31A G40C: 0.01; for U9G A39C C46U: 0.02.

Turning to U9C C15G A25G, the self-cleavage turned out to be 0.08.

As for U9C G19A G21U, the self-cleavage amounted to 0.02. On to U9G C10G A25U, for which the self-cleavage came out at 0. On to U9G A12C C15A G17U U32C, for which the self-cleavage amounted to 0.04.

In the case of U9C U20A G33U A39G G40C, the self-cleavage was determined as 0.03. Take U9C C13U C15G G29U C42G G44C: the self-cleavage came to 0.01. As to U9C G17C C23U, the self-cleavage was determined as 0.02. U9G A12C G22C: the self-cleavage was determined as 0. As for U9C A16C G22U, the self-cleavage came out at 0.03.

On to U9G C13A C23G C31A U32C G36A, for which the self-cleavage worked out at 0.04. The same measure for U9C U20A U43C: 0.01; for U9G A12U G19U G33U C45A: 0; for U9C U34C U38A G40U: 0.01.

On to U9C C18A G19U G22U, for which the self-cleavage came to 0.02. U9C C13U C15U C46U: the self-cleavage came to 0.03. On to U9G A11C U32G U38A, for which the self-cleavage is 0.

For the variant U9C U28A C45G, the self-cleavage turned out to be 0.02. For U9C G21A A25C U32A, the self-cleavage came out at 0. The same measure for U9C C10U A11U G22C A39U C42G: 0.01. For the variant U9C C13U U20A G36A, the self-cleavage came out at 0. With U9C C13U G27C the figure was 0.04; with U9G C10G U20A G27A, 0.01. Turning to U9C A16C C23G, the self-cleavage stood at 0.01. With U9G A12U C15G U28C G29A, the self-cleavage was 0.1. As for U9C C10A G36A, the self-cleavage turned out to be 0.01. U9C C18A U34C: the self-cleavage came to 0.02. As for U9C C15U U38C C42A, the self-cleavage came to 0.

In the case of U9C C13G G30A, the self-cleavage was 0.02. The same measure for U9C A11U A12C A16U G19A: 0.02. Regarding U9G A12C C45U C46U, the self-cleavage is 0. U9C G19U G35U: the self-cleavage is 0.04. Regarding U9C G22C G33A A41C C46A, the self-cleavage worked out at 0.01. In the case of U9C A12G U28C, the self-cleavage worked out at 0.01.

Turning to U9C G33C G40U C45A, the self-cleavage was 0.01.

For the variant U9G A24C G36U A41G C46A, the self-cleavage was 0.05.

For the variant U9G C10U C15G C31A C37A, the self-cleavage turned out to be 0. Regarding U9C G27A U38G G40C C45G, the self-cleavage is 0. As for U9G A11U A16U G17A, the self-cleavage worked out at 0. For the variant U9C U20G G22C U28G U38C, the self-cleavage came out at 0.

U9C A11G G27A C37G C42U C46G: the self-cleavage worked out at 0.01. On to U9G A14G C18U, for which the self-cleavage came out at 0. With U9G A12C A25G A26C C37U, the self-cleavage is 0. As to U9C A12C G27A A41C U43A, the self-cleavage is 0.01. For U9G C13G C37A, the self-cleavage turned out to be 0.17.

Turning to U9G C13G C37G, the self-cleavage was 0.06.

Consider U9G A12C U32A U34C G40U, for which the self-cleavage was found to be 0.01.

On to U9G C13U A14C U20A C23G G29U, for which the self-cleavage turned out to be 0.05. For U9G C10G G33U A41C C45A, the self-cleavage was found to be 0. For the variant U9G A12G G17U C18U U20A, the self-cleavage was determined as 0. Regarding U9C G22U C23A C45U, the self-cleavage was found to be 0.09.

Regarding U9C G22A A26U, the self-cleavage was determined as 0.05.
